According to the antibiotic and cytotoxicity screens of Wong et al. (2023):
The list shows a part of the results.

Assays:
HSkMC = human skeletal muscle cells; test: cytotoxicity call (relative viability < 0.9); conditions: 10 µM
S. aureus RN4220 = test: growth inhibition call (relative growth <= 0.2); conditions: 50 µM

Compound	cytotoxicity call (HSkMC)	growth inhibition call (S. aureus RN4220)
C=C[C@](C)(O)CCC=C(C)C	inactive	inactive
C[C@H](CO)N1C[C@H](C)[C@H](CN(C)Cc2ccc3c(c2)OCO3)OCCCC[C@H](C)Oc2ccc(NS(=O)(=O)c3ccccc3)cc2C1=O	inactive	inactive
CNCc1ccccc1.Cl	inactive	inactive
O=C(C[C@H]1C=C[C@H](NC(=O)C2CC2)[C@H](CO)O1)NCCCN1CCOCC1	inactive	inactive
C[C@@H]1CN([C@@H](C)CO)C(=O)c2cccc(NC(=O)Nc3ccccc3)c2O[C@H]1CN(C)Cc1ccc(Oc2ccccc2)cc1	inactive	inactive
CO[C@H]1CN(C)C(=O)c2cc(NS(C)(=O)=O)ccc2OC[C@H](C)N(C(=O)C2CCCCC2)C[C@@H]1C	inactive	inactive
C[C@H](CO)N1C[C@H](C)[C@H](CN(C)S(=O)(=O)c2cn(C)cn2)Oc2ncc(C#Cc3ccccc3)cc2C1=O	inactive	inactive
COCc1cn(CC[C@H]2CC[C@@H](NC(=O)CCN3CCCCC3)[C@H](CO)O2)nn1	inactive	inactive
C[C@@H]1CN([C@H](C)CO)C(=O)c2c(c3ccccc3n2C)-c2ccccc2CO[C@H]1CN(C)C(=O)[C@H](C)c1ccccc1	inactive	inactive
CN(C)S(=O)(=O)N(C)c1ccccc1	inactive	inactive
CC(C)NC(=O)N(C)C[C@H]1OCCCC[C@H](C)Oc2ccc(NC(=O)Nc3ccccc3)cc2C(=O)N([C@H](C)CO)C[C@@H]1C	inactive	inactive
Cc1ccc(-c2ccc3c(c2)O[C@@H](CN(C)C(=O)Nc2ccc(C(F)(F)F)cc2)[C@@H](C)CN([C@@H](C)CO)S3(=O)=O)cc1	inactive	inactive
O=C(C[C@@H]1C[C@H]2c3cc(NS(=O)(=O)c4ccccc4)ccc3O[C@H]2[C@H](CO)O1)NCC(F)(F)F	inactive	inactive
COCC(=O)Nc1ccc2c(c1)C(=O)N(C)[C@@H]1CC[C@H](CC(=O)NCc3ccc(OC)cc3)O[C@H]1CO2	inactive	inactive
CC(=O)N1[C@@H](CO)[C@H](c2ccccc2)[C@@H]1CNC(=O)CN1CCOCC1	inactive	inactive
CC(C)NC(=O)N(C)C[C@H]1Oc2ccc(NS(=O)(=O)c3ccccc3)cc2C(=O)N([C@@H](C)CO)C[C@H]1C	inactive	inactive
C[C@@H]1CN([C@H](C)CO)C(=O)c2cc(C#CCN(C)C)cnc2O[C@@H]1CN(C)C(=O)Nc1cccc(F)c1	inactive	inactive

Compound	cytotoxicity call (HSkMC)	growth inhibition call (S. aureus RN4220)
COC(=O)[C@@H]1N2C(=O)[C@@H](N3CC4=C[C@@H](C5CC5)n5c(=O)n(C)c(=O)n5[C@@H]4[C@@H]3[C@@H](O)Cc3ccccc3)[C@H]2SC1(C)C	inactive	inactive
COc1ccc(NC(=O)Nc2cccc3c2O[C@@H](CN(C)C(=O)Nc2ccc(C(F)(F)F)cc2)[C@@H](C)CN([C@@H](C)CO)C3=O)cc1	inactive	inactive
C[C@@H]1CN([C@H](C)CO)C(=O)c2cc(NC(=O)Nc3ccccc3)ccc2O[C@@H](C)CCCCO[C@@H]1CN(C)C(=O)Cc1ccccc1	inactive	inactive
COc1ccc([Si](C)(C)[C@H]2[C@H](CCn3cc(CCO)nn3)O[C@@]3(C(=O)N(Cc4cccc(N5C(=O)c6cccc7cccc5c67)c4)c4ccccc43)[C@@H]2C)cc1	inactive	inactive
C[C@@H]1CN([C@H](C)CO)S(=O)(=O)c2ccc(C#C[C@@H](C)O)cc2O[C@H]1CN(C)C(=O)c1ccccc1	inactive	inactive
C[C@H]1CN([C@@H](C)CO)S(=O)(=O)c2ccc(C#CC3(O)CCCC3)cc2O[C@H]1CN(C)C(=O)Nc1ccc(F)cc1	inactive	inactive
C[C@@H]1CN([C@H](C)CO)C(=O)c2cccc(NC(=O)C3CCCCC3)c2O[C@H]1CN(C)C(=O)Nc1ccc(C(F)(F)F)cc1	inactive	inactive
C[C@H]1CCCCO[C@H](CN(C)CC2CCCCC2)[C@@H](C)CN([C@@H](C)CO)C(=O)c2cc(NS(=O)(=O)c3ccc(Cl)cc3)ccc2O1	inactive	inactive
C[C@@H]1CN([C@H](C)CO)S(=O)(=O)c2ccc(C#Cc3cccc(F)c3)cc2O[C@H]1CN(C)S(=O)(=O)c1cn(C)cn1	inactive	inactive
C[C@H]1CN([C@@H](C)CO)C(=O)c2cc(NS(=O)(=O)c3cccs3)ccc2O[C@H]1CN(C)S(=O)(=O)c1ccccc1	inactive	inactive
COc1ccc(S(=O)(=O)N2C[C@H](O)COC[C@H]3O[C@H](CC(=O)NCc4ccc(Cl)c(Cl)c4)CC[C@@H]32)cc1	inactive	inactive
COc1cccc(C#Cc2ccc3c(c2)O[C@H](CN(C)C(=O)c2ccccn2)[C@@H](C)CN([C@H](C)CO)S3(=O)=O)c1	inactive	inactive
C=CCN(C(=O)[C@H]1N(C(C)(C)CO)C(=O)[C@H]2[C@H](C(=O)O)[C@@H]3C=C[C@@]21O3)C(C)(C)C	inactive	inactive
C[C@@H]1CCCCO[C@H](CN(C)S(=O)(=O)c2ccccc2)[C@@H](C)CN([C@H](C)CO)C(=O)c2cc(NC(=O)Nc3ccccc3)ccc2O1	inactive	inactive
C[C@H]1CN([C@@H](C)CO)C(=O)Cc2cc(NC(=O)Cn3cnnn3)ccc2O[C@@H]1CN(C)Cc1ccc(Cl)c(Cl)c1	inactive	inactive
Cc1noc(C)c1NC(=O)Nc1cccc2c1O[C@@H](CN(C)Cc1ccc(Cl)c(Cl)c1)[C@@H](C)CN([C@@H](C)CO)C2=O	inactive	inactive
C[C@H]1CN([C@@H](C)CO)C(=O)c2c(c3ccccc3n2C)-c2ccccc2CO[C@@H]1CN(C)Cc1ccccc1	inactive	inactive
